The whole screen tested about 48,000 compounds, of which about 120 (0.25%) were called active. Not shown: some 4% with an inconclusive outcome. The call rests on the fitted dose curve; in most records, active means well fitted activation curve with a large enough effect; inconclusive means small, poorly fitted or top-dose-only effect, or another doubt; inactive means no such curve, though single readings can be large or run the other way. Some of the results follow.
test: Primary qHTS for Identification of Small Molecule Activators of Huntingtin-Antisense Promoter Activity; conditions: HEK293 HTT-AS promoter firefly luciferase reporter (activity 0% = vehicle and -100% = no light), 24 h; series mostly up to 57.5 µM; activity change, positive = activation: at the top concentration; further: nearly all actives have a fitted effect of over 55% in size
Summary of the method: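 Firefly luciferase readout (Dual-Glo, 10 min RT) after 24 h, 37 °C compound exposure (final up to 57.5 uM) of HEK293 reporter cells cultured 24 h beforehand; PTC124 at 50 uM final as control inhibitor; activity scaled vehicle 0%, zero RLU -100%.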

Activity change, positive = activation, inactive:
CCCS(=O)(=O)c1nc(S(=O)(=O)c2ccc(C)cc2)c(N(C)Cc2ccccc2)s1 -26.9%
CCc1ccccc1-n1c(C)nc2cc(C(=O)NCCc3ccc(Cl)cc3)ccc21 -30.3%
Cc1ccc(CNC(=O)C2CCN(S(=O)(=O)c3cn(C)cn3)CC2)cc1 -10.2%
O=C(NCCCc1nc2ccccc2n1Cc1ccc(Cl)cc1)C1CCCCC1 -27.5%
Cc1ccc(-n2ncc(C(=O)NCCN3CCCC3)c2C2CCN(C(=O)OC(C)(C)C)CC2)cc1C -15.5%
COCCCNC(=O)CCc1c(C)nc2nc(-c3cc(OC)cc(OC)c3)nn2c1C -17.2%
CC(C)N(Cc1ccccc1)S(=O)(=O)c1ccc(-c2cc(C(F)(F)F)on2)s1 -25.6%
CC(C)OCCCNC(=O)CN1C(=O)COc2ccc(S(=O)(=O)N3CCCCCC3)cc21 -12%
COCc1c(C(C)C)nc(C(C)C)c(/C=C/[C@@H](O)C[C@@H](O)CC(=O)O)c1-c1ccc(F)cc1 -5.4%
CC(C)c1ccc(Nc2ncnc3onc(-c4ccc(F)cc4)c23)cc1 -25.5%
COc1cc(NC(=O)N2CCC(CN3CCOCC3)CC2)cc(OC)c1OC -1.42%
Cc1cc(Cl)ccc1NC(=O)Cn1nnc2sc(-c3ccccc3)cc2c1=O -7.07%
COc1ccc(OC)c2sc(N3CCN(C(=O)CCS(=O)(=O)c4ccc(F)cc4)CC3)nc12 -16.6%
COC(=O)c1ccc2c(c1)N(Cc1ccc(Cl)cc1)C(=O)c1ccccc1S2 -28.8%
Cc1nc2nc(SCC(=O)NC3CCCCC3)nn2c(C)c1Cc1ccccc1Cl -19.8%
COCCNc1nc2c(c(=O)n(Cc3cccc(Br)c3)c(=O)n2C)n1C 5.54%
COc1cccc(N2CCN(C(=O)c3cc4c(=O)oc5ccc(C)cc5c4s3)CC2)c1 -10.6%
CCCCn1nc(NC(=O)c2cccc(Cl)c2)c2cc3cccc(C)c3nc21 -5.44%
CCCn1c2ccccc2c2cnn(CC(=O)N3CCCC(C)C3)c(=O)c21 (centres undefined) -15.5%
O=C(c1ccc2c(c1)N(Cc1ccc(F)cc1)C(=O)c1ccccc1S2(=O)=O)N1CCCC1 -23.9%
COc1ccccc1Cn1c(CNS(=O)(=O)c2ccc(C(C)C)cc2)nc2cccnc21 -24%
CCC(=O)N1CCCc2cc(S(=O)(=O)N3CCC(C(=O)NC4CCCCC4)CC3)ccc21 -10.7%
COc1ccc(CNC(=O)c2nc(SCc3ccccc3F)ncc2Cl)cc1 -33.5%
CC(NC(=O)c1ccc2c(c1)CCN2S(=O)(=O)c1ccccc1)c1ccccc1 (centres undefined) -15.4%
COc1ccccc1NC(=O)c1oc2ccccc2c1NC(=O)c1cccc(OC)c1OC -37.7%
CCC(Oc1ccccc1)C(=O)Nc1cc(-c2cccc(C)c2)nn1-c1ccccc1 (centres undefined) 5.42%
O=C(O)CCNc1cc(N2CCc3ccccc3CC2)nc(-c2ccccn2)n1 -10.2%
COc1ccc(-n2c(C)c(C(C)=O)c3cc(OC(=O)COc4ccccc4)ccc32)cc1 -22.8%
CCCS(=O)(=O)N1CC(=O)N(c2cccc(Cl)c2C)C(C)(C(=O)NC2CCCC2)C1 (centres undefined) -10.4%
Cc1cc(-c2ccc(C)c(S(=O)(=O)NCc3cccc(Br)c3)c2)on1 -32.4%
Cc1cc(C)cc(OCC(=O)N(Cc2cccs2)c2ccc(Cl)cc2)c1 -32.8%
CCCCCn1c(CCNC(=O)c2ccc(F)cc2)nc2ccccc21 -21.3%
Fc1ccc(-c2nn(-c3ccccc3Cl)c3c2cnc2ccccc23)cc1 -28.1%
Cc1ccc2onc(CC(=O)N3CCN(c4cc(Cl)ccc4C)CC3)c2c1 -36.6%
COc1ccc(-n2nc(C(=O)N3CCN(c4cccc(C)c4C)CC3)c3c4ccccc4n(C)c3c2=O)cc1Cl -15.1%
Cc1ccc(CNC(=O)Cc2c(C)c3c(cc(C)c4c(C)coc43)oc2=O)cc1 -6.37%
COc1cccc(CNC(=O)Cn2ncn3nc(-c4cccs4)cc3c2=O)c1OC 8.26%
CC=CC1=C(C(=O)O)N2C(=O)[C@H](NC(=O)[C@H](N)c3ccc(O)cc3)[C@@H]2SC1 -49%
COc1cccc(C(=O)c2c(N)c(-c3nc(-c4ccccc4)cs3)c3ccccn23)c1 3.4%
Cc1cccc(-n2c(=O)c3c(c4cc(C)ccc4n3C)n(CC(=O)N3CCCC3)c2=O)c1 -21.9%
CNC(=O)[C@H](CC1=CN=C2C=CCC=C12)NC(=O)[C@@H](CC(=O)NO)CC(C)C -21.4%
O=C(CN1C(=O)COc2ccccc21)NCCc1ccc(Cl)cc1 -7.09%
CCOc1ccc(N(CC)S(=O)(=O)N2CCCC(C(=O)Nc3ccc(C(C)=O)cc3)C2)cc1 (centres undefined) -26.2%
Cc1ccc(CNC(=O)c2ccc(NC(=O)N3CCSc4ncccc43)cc2)cc1 -4.36%
CCc1ccc(-n2c(=O)c3c4c(sc3n(CC(=O)N3CCCCC3CC)c2=O)CCC4)cc1 (centres undefined) -26.8%
Cc1ccc(NC(=O)Cn2c(=O)n(Cc3nc(C)no3)c(=O)c3ccccc32)c(Cl)c1 -8.26%
Cc1cccc(C)c1OCCCn1c(CCNC(=O)C2CCCCC2)nc2ccccc21 -33.6%
CCc1ccc(NC(=O)CN2C(=O)C(c3ccc(Cl)cc3)=NC23CCCCC3)cc1 -32.6%
CCOc1ccccc1NC(=O)c1nc(SC(C)C)ncc1Cl 0%
Cc1c(CNC2CCCCC2)c(C(=O)O)c(C)n1Cc1cccc(Cl)c1 -18%
Cc1c(C(=O)Nc2cccc(Cl)c2)sc2nc3n(c(=O)c12)N=C(c1cccc(Br)c1)CS3 -28%
Cc1ccccc1Nc1c(-c2cc(Br)ccc2F)nc2ccccn12 -15.9%
CCOC(=O)C1CCC(CN(Cc2ccccc2)S(=O)(=O)c2ccc(Br)cc2)CC1 (centres undefined) -11%
Cc1cccc(/C=C(\C#N)c2nc3ccccc3c(=O)[nH]2)c1 -17.3%
COc1cc(NC(=O)CCS(=O)(=O)c2ccc3c(c2)CC(=O)N3C)cc(OC)c1OC 3.73%
CCOc1ccc(-c2cc(C(=O)Oc3ccc(C#N)cc3)no2)cc1 3.79%
COc1ccc(/C=C/c2nc(C#N)c(NCc3ccc(F)cc3)o2)cc1OC -33.1%
COc1ccc(N2CCN(CCCNC(=O)c3cc(Nc4ccc(OC)cc4OC)nc4ccccc34)CC2)cc1 -39%
O=C(CCS(=O)(=O)c1ccccc1)N(Cc1cccnc1)c1nc2ccc(Cl)cc2s1 2.21%
CCCN1Cc2cccc(C(=O)Nc3ccc(C(C)=O)cc3)c2C1=O -16.4%
CC1=C(c2ccc(Cl)cc2)S(=O)(=O)NC1=NCCCN1CCN(c2cc(C)ccc2C)CC1 -51.8%
CCC(CC)C(=O)OCc1cc(=O)n2nc(C3CC3)sc2n1 2.22%
Cn1cc(-c2cc3n(n2)CCC(=O)N3CCCC(=O)NCc2ccc(Cl)cc2)c2ccccc21 -49.7%
O=C(CCCn1c(=O)c2cccn2c2ccccc21)Nc1cc(C(F)(F)F)ccc1Cl -17.1%
CC1C(=O)Nc2ccc(S(=O)(=O)N3CCCCC3)cc2NC1=O (centres undefined) -22.4%
COc1ccc(Cn2c(CCC(=O)Nc3cc(OC)c(OC)c(OC)c3)nc3cccnc32)cc1 -22.7%
CCOC(=O)c1cc(-c2ccc(OC)cc2)n(CCC(=O)Nc2ccccc2OC)c1C -26.3%
O=C(CSc1nccn1Cc1ccccc1)NCc1ccco1 16.6%
CCOc1ccccc1NC(=O)CN1C(=O)COc2ccc(S(=O)(=O)N3CCOCC3)cc21 -3.49%
CCOc1ccc(NCc2cccn2-c2nnc(N3CCC(C(=O)NCC(C)c4ccccc4)CC3)s2)cc1 (centres undefined) -37.6%
CCN(c1ccccc1)S(=O)(=O)c1ccc(NC(=O)c2nc(SC)ncc2Cl)cc1 -39.4%
CCN(CC)c1ccc(NC(=O)C2CCN(c3nnc(-n4cccc4)s3)CC2)c(C)c1 -19.4%
O=c1c2sc3ccccc3c2n(Cc2cccc(F)c2)c(=O)n1Cc1ccccc1 -19.4%
CCOC(=O)Cn1c(=O)n(CC2CCCO2)c2nc(-c3ccccc3OC)nc(C(N)=O)c21 (centres undefined) -2.1%
O=C(NC1CC(=O)N(c2ccc(F)cc2)C1)c1ccc(S(=O)(=O)N2CCCCC2)cc1 (centres undefined) -23.9%
O=C(NCc1cccs1)c1ccc2c(=O)n3nc(Nc4ccccc4)sc3nc2c1 -17%
Cc1ccc2c(c1Br)C(O)(CC(=O)c1ccc(F)cc1)C(=O)N2 (centres undefined) -19.8%
CCOC(=O)c1ccc(N2C(=O)c3[nH]nc(-c4ccccc4)c3C2c2ccc(CC)cc2)cc1 (centres undefined) -53.7%
Cc1cccc2sc(N(Cc3cccnc3)C(=O)CCc3ccccc3)nc12 -21.3%
Cc1c(Cl)cccc1NC(=O)CC1Oc2ccccc2NC1=O (centres undefined) -4.6%
CCOc1ccccc1C(=O)N(Cc1ccco1)Cc1ccco1 -14%
COc1ccccc1CNC(=O)C1CCCN(S(=O)(=O)c2ccc3c(c2)oc(=O)n3C)C1 (centres undefined) -18.4%
O=C(Cn1c(=O)n(Cc2nc(-c3ccccc3)no2)c(=O)c2ccccc21)Nc1cccc(C(F)(F)F)c1 -62.9%
O=C(c1ccc2c(c1)N(Cc1ccccc1F)C(=O)c1ccccc1S2(=O)=O)N1CCC(Cc2ccccc2)CC1 -12.8%
COc1ccc(-c2cc(C(=O)Nc3c(C(=O)c4ccc(C)cc4)oc4ccccc34)no2)cc1 3.34%
CCn1nc(C)c2c(-c3ccccc3)cc(=O)n(C(C)C(=O)NCCC(C)C)c21 (centres undefined) -25.6%
CC(=O)Nc1ccc(NC(=O)CCc2nc3cccnc3n2Cc2cccs2)cc1 -16.3%
CCc1ccc(OC(C)C(=O)N2CCC(c3nc4ccccc4o3)CC2)cc1 (centres undefined) -37.6%
Cc1ccc(C(=O)Nc2ccc3c(c2)n(C)c(=O)c(=O)n3C)cc1 -0.964%
COc1ccc(CNS(=O)(=O)c2ccc(N3CCCCS3(=O)=O)cc2)cc1 -33.7%
Cc1ccc(NC(=O)Cn2nc(C(=O)Nc3ccc(C)cc3)ccc2=O)cc1 -6.1%
CC1CCN(Cc2c(O)ccc3c(=O)c(Oc4ccccc4Cl)c(C(F)(F)F)oc23)CC1 -8.21%
O=C(COc1ccccc1F)Nc1ccc2nc(SCCOc3ccccc3)sc2c1 -19.7%
COc1ccc(NC(=O)CC2C(=O)N(c3cccc(OC)c3)C(=O)N2CCc2cccs2)cc1 (centres undefined) -7.62%

— PubChem BioAssay AID1508624 (National Center for Advancing Translational Sciences (NCATS), 2021)
